# Source: the supplement of paper PMC8728848
# Some of the results follow.
# B1: PILRa (Homo sapiens), Q9UKJ1 (protein)
# chain: MGRPLLLPLLPLLLPPAFLQPSGSTGSGPSYLYGVTQPKHLSASMGGSVEIPFSFYYPWELATAPDVRISWRRGHFHRQSFYSTRPPSIHKDYVNRLFLNWTEGQKSGFLRISNLQKQDQSVYFCRVELDTRSSGRQQWQSIEGTKLSITQAVTTTTQRPSSMTTTWRLSSTTTTTGLRVTQGKRRSDSWHISLETAVGVAVAVTVLGIMILGLICLLRWRRRKGQQRTKATTPAREPFQNTEEPYENIRNEGQNTDPKLNPKDDGIVYASLALSSSTSPRAPPSHRPLKSPQNETLYSVLKA
# Assays:
# Assay in all cases: glycan array binding signal (z-score within array); higher = stronger binding
# Conditions in all cases: glycan notation: IUPAC condensed, linker removed
# [1] = target: Fuc(a1-2)[Gal(a1-3)]Gal
# In short: (§1)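 The binding signal is a Z-score computed within each array and averaged over linkers. Arrays of the same protein sequence at different concentrations or buffers were also averaged together. Data originate from 3228 arrays in the Consortium for Functional Glycomics database, kept only where the protein sequence was available.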
# [2] = target: Fuc(a1-2)[Gal(a1-3)]Gal(b1-3)GlcNAc
# In short: as §1
# [3] = target: Fuc(a1-2)[Gal(a1-3)]Gal(b1-3)GlcNAc(b1-2)Man(a1-3)[Fuc(a1-2)[Gal(a1-3)]Gal(b1-3)GlcNAc(b1-2)Man(a1-6)]Man(b1-4)GlcNAc(b1-4)GlcNAc
# In short: as §1
# [4] = target: Fuc(a1-2)[Gal(a1-3)]Gal(b1-3)GlcNAc(b1-3)GalNAc
# In short: as §1
# [5] = target: Fuc(a1-2)[Gal(a1-3)]Gal(b1-4)Glc
# In short: as §1
# [6] = target: Fuc(a1-2)[Gal(a1-3)]Gal(b1-4)GlcNAc
# In short: as §1
# [7] = target: Fuc(a1-2)[Gal(a1-3)]Gal(b1-4)GlcNAc(b1-2)Man(a1-3)[Fuc(a1-2)[Gal(a1-3)]Gal(b1-4)GlcNAc(b1-2)Man(a1-6)]Man(b1-4)GlcNAc(b1-4)GlcNAc
# In short: as §1
# [8] = target: Fuc(a1-2)[Gal(a1-3)]Gal(b1-4)GlcNAc(b1-2)Man(a1-3)[Fuc(a1-2)[Gal(a1-3)]Gal(b1-4)GlcNAc(b1-2)Man(a1-6)]Man(b1-4)GlcNAc(b1-4)[Fuc(a1-6)]GlcNAc
# In short: as §1
# [9] = target: Fuc(a1-2)[Gal(a1-3)]Gal(b1-4)GlcNAc(b1-3)GalNAc
# In short: as §1
# [10] = target: Fuc(a1-2)[Gal(a1-3)]Gal(b1-4)[Fuc(a1-3)]Glc
# In short: as §1
# [11] = target: Fuc(a1-2)[Gal(a1-3)]Gal(b1-4)[Fuc(a1-3)]GlcNAc
# In short: as §1
# [12] = target: Fuc(a1-2)[Gal(a1-3)]Gal(b1-4)[Fuc(a1-3)]GlcNAc(b1-3)GalNAc
# In short: as §1
# [13] = target: Fuc(a1-2)[Gal(a1-4)]Gal(b1-4)GlcNAc
# In short: as §1
# [14] = target: Fuc(a1-2)[GalNAc(a1-3)]Gal
# In short: as §1
# [15] = target: Fuc(a1-2)[GalNAc(a1-3)]Gal(b1-3)GalNAc(a1-3)[Fuc(a1-2)]Gal(b1-4)GlcNAc
# In short: as §1
# [16] = target: Fuc(a1-2)[GalNAc(a1-3)]Gal(b1-3)GlcNAc
# In short: as §1
# [17] = target: Fuc(a1-2)[GalNAc(a1-3)]Gal(b1-3)GlcNAc(b1-2)Man(a1-3)[Fuc(a1-2)[GalNAc(a1-3)]Gal(b1-3)GlcNAc(b1-2)Man(a1-6)]Man(b1-4)GlcNAc(b1-4)GlcNAc
# In short: as §1
# [18] = target: Fuc(a1-2)[GalNAc(a1-3)]Gal(b1-3)GlcNAc(b1-3)GalNAc
# In short: as §1
# [19] = target: Fuc(a1-2)[GalNAc(a1-3)]Gal(b1-4)Glc
# In short: as §1
# [20] = target: Fuc(a1-2)[GalNAc(a1-3)]Gal(b1-4)GlcNAc
# In short: as §1
# [21] = target: Fuc(a1-2)[GalNAc(a1-3)]Gal(b1-4)GlcNAc(b1-2)Man(a1-3)[Fuc(a1-2)[GalNAc(a1-3)]Gal(b1-4)GlcNAc(b1-2)Man(a1-6)]Man(b1-4)GlcNAc(b1-4)GlcNAc
# In short: as §1
# [22] = target: Fuc(a1-2)[GalNAc(a1-3)]Gal(b1-4)GlcNAc(b1-3)Gal(b1-4)GlcNAc
# In short: as §1
# [23] = target: Fuc(a1-2)[GalNAc(a1-3)]Gal(b1-4)GlcNAc(b1-3)Gal(b1-4)GlcNAc(b1-3)Gal(b1-4)GlcNAc
# In short: as §1
# [24] = target: Fuc(a1-2)[GalNAc(a1-3)]Gal(b1-4)GlcNAc(b1-3)GalNAc
# In short: as §1
# [25] = target: Fuc(a1-2)[GalNAc(a1-3)]Gal(b1-4)[Fuc(a1-3)]GlcNAc
# In short: as §1
# [26] = target: Fuc(a1-2)[GalNAc(a1-3)]Gal(b1-4)[Fuc(a1-3)]GlcNAc(b1-3)GalNAc
# In short: as §1
# [27] = target: Fuc(a1-2)[GalNAc(a1-4)]Gal(b1-4)GlcNAc
# In short: as §1
# [28] = target: Fuc(a1-2)[GalNAc(b1-3)]Gal
# In short: as §1
# [29] = target: Fuc(a1-3)GlcNAc
# In short: as §1
# [30] = target: Fuc(a1-3)[Gal(b1-4)]Glc6S
# In short: as §1
# [31] = target: Fuc(a1-3)[Gal(b1-4)]GlcNAc
# In short: as §1
# [32] = target: Fuc(a1-3)[Gal(b1-4)]GlcNAc(b1-2)Man(a1-3)[Fuc(a1-3)[Gal(b1-4)]GlcNAc(b1-2)Man(a1-6)]Man(b1-4)GlcNAc(b1-4)GlcNAc
# In short: as §1
# [33] = target: Fuc(a1-3)[Gal(b1-4)]GlcNAc(b1-2)Man(a1-3)[Fuc(a1-3)[Gal(b1-4)]GlcNAc(b1-2)Man(a1-6)]Man(b1-4)GlcNAc(b1-4)[Fuc(a1-6)]GlcNAc
# In short: as §1
# [34] = target: Fuc(a1-3)[Gal(b1-4)]GlcNAc(b1-2)Man(a1-6)[Gal(b1-4)GlcNAc(b1-2)Man(a1-3)]Man(b1-4)GlcNAc(b1-4)GlcNAc
# In short: as §1
# [35] = target: Fuc(a1-3)[Gal(b1-4)]GlcNAc(b1-3)Gal(b1-3)[Fuc(a1-4)]GlcNAc
# In short: as §1
# [36] = target: Fuc(a1-3)[Gal(b1-4)]GlcNAc(b1-3)GalNAc
# In short: as §1
# [37] = target: Fuc(a1-3)[Gal(b1-4)]GlcNAc(b1-4)Gal(b1-4)[Fuc(a1-3)]GlcNAc
# In short: as §1
# [38] = target: Fuc(a1-3)[Gal(b1-4)]GlcNAc(b1-4)Gal(b1-4)[Fuc(a1-3)]GlcNAc(b1-4)Gal(b1-4)[Fuc(a1-3)]GlcNAc
# In short: as §1
binder,measurement,setting,value
B1,glycan array binding signal (z-score),[1],0.018
same,glycan array binding signal (z-score),[2],-0.18
same,glycan array binding signal (z-score),[3],0.065
same,glycan array binding signal (z-score),[4],0.023
same,glycan array binding signal (z-score),[5],-0.132
same,glycan array binding signal (z-score),[6],-0.277
same,glycan array binding signal (z-score),[7],-0.305
same,glycan array binding signal (z-score),[8],-0.14
same,glycan array binding signal (z-score),[9],-0.193
same,glycan array binding signal (z-score),[10],-0.182
same,glycan array binding signal (z-score),[11],1.53
same,glycan array binding signal (z-score),[12],3.41
same,glycan array binding signal (z-score),[13],-0.034
same,glycan array binding signal (z-score),[14],-0.162
same,glycan array binding signal (z-score),[15],-0.142
same,glycan array binding signal (z-score),[16],-0.308
same,glycan array binding signal (z-score),[17],-0.297
same,glycan array binding signal (z-score),[18],4.4
same,glycan array binding signal (z-score),[19],-0.343
same,glycan array binding signal (z-score),[20],-0.229
same,glycan array binding signal (z-score),[21],-0.219
same,glycan array binding signal (z-score),[22],-0.264
same,glycan array binding signal (z-score),[23],0.29
same,glycan array binding signal (z-score),[24],-0.194
same,glycan array binding signal (z-score),[25],0.882
same,glycan array binding signal (z-score),[26],9.37
same,glycan array binding signal (z-score),[27],-0.115
same,glycan array binding signal (z-score),[28],-0.035
same,glycan array binding signal (z-score),[29],0.091
same,glycan array binding signal (z-score),[30],-0.08
same,glycan array binding signal (z-score),[31],0.103
same,glycan array binding signal (z-score),[32],-0.138
same,glycan array binding signal (z-score),[33],2.1
same,glycan array binding signal (z-score),[34],-0.546
same,glycan array binding signal (z-score),[35],-0.129
same,glycan array binding signal (z-score),[36],3.22
same,glycan array binding signal (z-score),[37],-0.14
same,glycan array binding signal (z-score),[38],0.185
